T1: UNK ZnF1-6 (called full-length) (human, UniProt Q9C0B0 30-357)
T1 sequence: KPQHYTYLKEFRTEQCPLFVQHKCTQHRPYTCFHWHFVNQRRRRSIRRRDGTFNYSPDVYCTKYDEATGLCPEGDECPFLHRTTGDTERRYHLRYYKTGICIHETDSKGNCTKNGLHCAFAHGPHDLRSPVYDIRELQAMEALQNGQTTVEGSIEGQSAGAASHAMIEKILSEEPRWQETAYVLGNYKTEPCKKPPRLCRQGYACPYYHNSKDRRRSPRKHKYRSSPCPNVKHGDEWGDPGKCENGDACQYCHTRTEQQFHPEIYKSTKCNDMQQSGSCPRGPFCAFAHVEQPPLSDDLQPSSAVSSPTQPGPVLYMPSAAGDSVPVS

B1: ENSG00000170312:stop:overlap|stop_codon|ENSG00000170312|stop_codon|NA|stop_codon (ssRNA)
RNA: GGGAGUUCUACAGUCCGACGAUCGCAAAAUGGCACUGAAUCAUCCAUAUUUUAAUGAUUUGGACAAUCAGAUUAAGAAGAUGUAGCUUUCUGACAAAAAGUUUCCAUAUGUUAUAUCAACAGAUAGUUGUGUUUUUAUUGUUACAACAGAGGAUUGAGCAUCA
B2: ENSG00000070961:be:win_5701|3pUTR|ENSG00000070961|bound_else_gene|NA|bound_elsewhere_windowed (ssRNA)
RNA: GGGAGUUCUACAGUCCGACGAUCCAUUUACCCUAAAUAAGGGUGGUGGACUAUCUUGAAGAACCCUUUCAACUCUAAAAAUUGACCCUAUCAACUGGAGAGCCCACAAGGCAUAGGGAAUAGAGAAAAGGGAAAUGUUUUCAGCAACAGAGGAUUGAGCAUCA
B3: chr7:115017934:115018035:+|3pUTR|ENSG00000135272|unk|FALSE|unique (ssRNA)
RNA: GGGAGUUCUACAGUCCGACGAUCUGAGAUGAAACGUAGUUUCUAGUUAUAUCAUUACUUAAAGGGCUUAAAAAGAAAAAACUUAGCAAACUUUUGAAUCUUUCUUUUAUUGCUAUUUACACAUACAUACACACAUACAAAACCCAACAGAGGAUUGAGCAUCA
B4: ENSG00000136451:be:win_101|CDS|ENSG00000136451|bound_else_gene|NA|bound_elsewhere_windowed (ssRNA)
RNA: GGGAGUUCUACAGUCCGACGAUCCCGUGGAGCCCCCUGAUCAGAAACCAUUGCUUCCAAUACCAAUAACUCAGAAACCUCAGGGUGCACCAGAAACAUUAAAGGAUGCCAUUGGGAUUAAAAAAGAAAAACCCAAAACUUCAUCAACAGAGGAUUGAGCAUCA
B5: chr10:89213657:89213758:-|3pUTR|ENSG00000107798|msi1|total|mutant (ssRNA)
RNA: GGGAGUUCUACAGUCCGACGAUCUUACAAUACUGUCCGGUGGACAAAAUGACAAUUGAUAUGUUUUUCUGAUAUAAUUACUUCCGCUGCACUAACAGUACAAUGCUUGUUAAUGGUUAAUACCGGCAGGGCGAAUACUACUUUCAACAGAGGAUUGAGCAUCA
B6: chr19:10133403:10133440:-|3pUTR|ENSG00000130816|msi1_unk|FALSE|overlapping (ssRNA)
RNA: GGGAGUUCUACAGUCCGACGAUCUUUUUUAUUAUGCAUUAUAUCAAAUCUACCACUGUAUGAGUGGAAAUUAAGACUUUAUGUAGUUUUUAUAUGUUGUAAUAUUUCUUCAAAUAAAUCUCUCCUAUAAACCACCCUGGGUGGCAACAGAGGAUUGAGCAUCA

The list shows a part of the results.

The test deals with T1, UNK ZnF1-6 (called full-length). Nature of the test: nsRBNS (natural sequence RNA bind-n-seq); RBNS binding buffer (assumed for nsRBNS): 25 mM Tris pH 7.5, 150 mM KCl, 3 mM MgCl2, 0.01% Triton X-100, 500 ug/ml BSA, 20 U/ml SUPERase-In, 4 C; UNK is unkempt and MSI1 is Musashi-1; names of the RNAs are library labels; protein concentration not given here; high values mean tight binding.
As for B1, the binding signal turned out to be 0.706 enrichment R.
B2 came in with a binding signal of 0.304 enrichment R.
As for B3, the figure is 5.81 enrichment R.
Molecule B4 returned a binding signal of 0.513 enrichment R.
For B5, the binding signal stood at 0.418 enrichment R.
The molecule B6 displayed a binding signal of 3.26 enrichment R.

Values taken from PMC12136788.
